Experimental data: PubChem BioAssay AID504332 (National Center for Advancing Translational Sciences (NCATS), 2011)
Hit rate of the full screen: of about 350,000 compounds, about 31,000 (8.9%) were called active. This list was built around the results that the source calls inconclusive (neither active nor inactive); the mix of calls is not that of the screen. Calls follow the shape of the dose curve; as a rule, active = well fitted inhibition curve with a large enough effect; inconclusive = small, poorly fitted or top-dose-only effect; inactive = no such curve, though single readings can be large or run the other way. A potency beside an inconclusive call is a rough fit, not a confirmed value.

Molecular target: Histone-lysine N-methyltransferase EHMT2 (Homo sapiens) (UniProt Q96KQ7)
Experiment: qHTS Assay for Inhibitors of Histone Lysine Methyltransferase G9a; also: nearly all actives have a fitted effect of over 75% in size
Settings: G9a H3K9 monomethylation, AlphaScreen, 2 h; activity, negative = inhibition: at 59 µM (top of the series) unless noted
Summary of the method: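 Readings reflect AlphaScreen signal from monomethyl-H3K9 antibody detection. HMT at 20 nM; substrate b-H3K9 500 nM; cofactor SAM 20 uM; 2 h RT reaction; compounds tested as titrations in qHTS with 15 min preincubation.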
% is scaled to controls: 0 for no effect and ±100 for the full control effect; potency is read from the fitted curve at half-maximal effect; tags tell the direction and shape of the fitted curve.

UniProt Q96KQ7, sequence (Q96KQ7 whole entry, looked up): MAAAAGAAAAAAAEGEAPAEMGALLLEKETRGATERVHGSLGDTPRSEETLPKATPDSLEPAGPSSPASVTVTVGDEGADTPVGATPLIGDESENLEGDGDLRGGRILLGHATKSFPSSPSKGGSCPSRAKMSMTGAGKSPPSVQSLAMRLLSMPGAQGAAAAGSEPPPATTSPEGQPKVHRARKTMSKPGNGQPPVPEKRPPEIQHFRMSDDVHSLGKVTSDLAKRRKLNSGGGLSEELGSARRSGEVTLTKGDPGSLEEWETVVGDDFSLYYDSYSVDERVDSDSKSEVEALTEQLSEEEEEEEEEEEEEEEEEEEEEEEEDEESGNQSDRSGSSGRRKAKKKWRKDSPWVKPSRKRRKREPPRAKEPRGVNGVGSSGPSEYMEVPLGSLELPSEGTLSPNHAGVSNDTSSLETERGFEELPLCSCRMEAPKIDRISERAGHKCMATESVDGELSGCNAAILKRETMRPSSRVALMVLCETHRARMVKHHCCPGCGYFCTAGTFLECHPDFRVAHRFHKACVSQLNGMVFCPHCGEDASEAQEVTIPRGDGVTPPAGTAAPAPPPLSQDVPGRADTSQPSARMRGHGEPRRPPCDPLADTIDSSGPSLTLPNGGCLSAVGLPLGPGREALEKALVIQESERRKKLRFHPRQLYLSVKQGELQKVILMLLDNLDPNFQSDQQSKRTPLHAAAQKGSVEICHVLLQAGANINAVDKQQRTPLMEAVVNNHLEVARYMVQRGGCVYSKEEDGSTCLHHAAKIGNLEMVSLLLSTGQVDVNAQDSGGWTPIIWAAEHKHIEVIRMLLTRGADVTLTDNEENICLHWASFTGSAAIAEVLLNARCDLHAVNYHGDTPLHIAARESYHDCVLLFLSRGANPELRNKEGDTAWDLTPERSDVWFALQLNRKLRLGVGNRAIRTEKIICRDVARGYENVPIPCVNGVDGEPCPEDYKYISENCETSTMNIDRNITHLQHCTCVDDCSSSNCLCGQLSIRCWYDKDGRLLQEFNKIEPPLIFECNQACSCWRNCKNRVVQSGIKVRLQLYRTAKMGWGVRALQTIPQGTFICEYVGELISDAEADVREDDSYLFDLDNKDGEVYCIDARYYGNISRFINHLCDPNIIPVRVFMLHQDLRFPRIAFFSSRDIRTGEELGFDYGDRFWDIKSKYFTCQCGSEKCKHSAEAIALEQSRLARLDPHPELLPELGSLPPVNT

| Structure (SMILES) | Potency | activity, negative = inhibition |
| --- | --- | --- |
| Cc1ccc(S(=O)(=O)Nc2ccc(=O)n(Cc3ccc(Cl)c(Cl)c3)c2)cc1 | inconclusive: 15.8 µM [inhibitor, single point] |  |
| Cc1cc(C)n(C(=O)CSc2nc3ccccc3o2)n1 | active: 79.4 µM |  |
| CCC1(C)Cc2c(sc3[nH]c(=O)[nH]c(=O)c23)CS1 (stereo not drawn) | inconclusive: 39.8 µM [inhibitor, single point] |  |
| Cc1ccc2sc(N(CCCN(C)C)C(=O)c3ccc(S(=O)(=O)N(C)Cc4ccccc4)cc3)nc2c1C | active: 10 µM |  |
| c1ccc(-c2cncnc2)nc1 |  | inactive: 3.7% [at 0.501 µM] |
| Cc1ccc2oc3c(c(=O)c2c1)C(c1cccc(O)c1)N(CCCN1CCOCC1)C3=O (stereo not drawn) | inactive |  |
| CN(C)S(=O)(=O)c1cc(NC(=O)CN2CCCc3ccccc32)ccc1Cl | active: 35.5 µM |  |
| COc1ccccc1C(=O)N1CCC(N2CCN(c3ccccc3)CC2)CC1 | active: 35.5 µM |  |
| COc1ccccc1N1C(=O)c2ccccc2NC1c1ccncc1 (stereo not drawn) | inactive |  |
| Cc1ccc(S(=O)(=O)N2CCOCC2)cc1NC(=O)COC(=O)c1cnccn1 | inconclusive: 6.31 µM [inhibitor, partial curve, poor fit] |  |
| CCOc1ccc(C(=O)Nc2cc(-c3ccccc3)no2)cc1 | inactive |  |
| CN1/C(=C\C(=O)COc2ccc3c(c2)OCO3)C(C)(C)c2ccccc21 | inconclusive: 12.6 µM [inhibitor, partial curve, poor fit] |  |
| O=C(Nc1ccc(CN2CCOCC2)cc1)c1ccc(-c2cccc(Cl)c2)o1 | active: 17.8 µM |  |
| COc1ccc(N(Cc2cccs2)C(=O)COc2ccc([N+](=O)[O-])cc2)cc1 | inactive |  |
| CN1CCSc2ccc(C(=O)NCc3ccccc3)cc21 | active: 39.8 µM |  |
| Cc1noc(C)c1C(=O)Nc1nc(-c2cc(F)ccc2F)cs1 | inconclusive: 89.1 µM [inhibitor, single point] |  |
| O=C(CCC(=O)c1ccc(F)cc1)Nc1ccccc1Cl | inactive |  |
| Cc1ccc2nc(N3CCN(c4ccccc4F)CC3)c3nnnn3c2c1 | inactive |  |
| O=C(O)C1SCCN1S(=O)(=O)c1ccc2ccccc2c1 (stereo not drawn) | inconclusive: 39.8 µM [inhibitor, single point] |  |
| COc1ccc(N2C(=S)N=C(Nc3ccccc3)C23CCCCC3)cc1 | inactive |  |
| O=C(O)C(Cc1cc(I)c(O)c(I)c1)c1ccccc1 (stereo not drawn) | inconclusive: 3.55 µM [inhibitor, single point] |  |
| CCCn1nnc2sc3c(c2c1=O)CCC(C)C3 (stereo not drawn) | inactive |  |
| Cc1ccc(NC(=O)Cn2c(=O)n(CCC(=O)NCc3ccccc3Cl)c(=O)c3ccccc32)c(C)c1 | inconclusive: 39.8 µM [inhibitor, single point] |  |
